# Test results published in PubChem BioAssay (NCI).
# Not every entry of the source has a single result; some have several. The other results are left out here. No stated cut-off is given here; in the data, active means growth inhibition above about 70%; inactive means the rest. There may be further records. Values that stand side by side are repeated measurements (runs, samples, wells, individuals or studies). Counts like (3×) give the number of equal values in this list. A structure can be active in one record and inactive in another. Where a SMILES comes first, the peptide text is derived from it. [ ]: non-standard residue; d: D form. ξ: configuration not given here. ξI = CCC(C)C(N)C(=O)O
# Assays:
# [1] = NCI Yeast Anticancer Drug Screen. Data for the rad50 strain (AID 155);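 further: 0% = growth of vehicle-only cultures of the same strain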; conditions: S. cerevisiae rad50 strain growth inhibition; at 50.0 µM; stronger effect = higher value
# [2] = NCI Yeast Anticancer Drug Screen. Data for the mec2-1 strain (AID 157); conditions: S. cerevisiae mec2-1 strain, at 50.0 µM, stronger effect = higher value
# [3] = NCI Yeast Anticancer Drug Screen. Data for the sgs1 mgt1 strain (AID 161);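 further: 0% = growth of cultures given vehicle only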; conditions: S. cerevisiae sgs1 mgt1 strain, at 50.0 µM, stronger effect = higher value
# [4] = NCI Yeast Anticancer Drug Screen. Data for the cln2 rad14 strain (AID 165);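 further: 0% = growth equal to vehicle treated cultures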; conditions: S. cerevisiae cln2 rad14 strain, at 50.0 µM, stronger effect = higher value
# [5] = NCI Yeast Anticancer Drug Screen. Data for the bub3 strain (AID 167); conditions: S. cerevisiae bub3 mutant strain, at 50.0 µM, stronger effect = higher value
# [6] = NCI Yeast Anticancer Drug Screen. Data for the mlh1 rad18 strain (AID 175); conditions: S. cerevisiae mlh1 rad18 strain growth inhibition; at 50.0 µM; stronger effect = higher value
Structure (SMILES),growth inhibition [1],growth inhibition [2],growth inhibition [3],growth inhibition [4],growth inhibition [5],growth inhibition [6]
COc1cccc2c1C(=O)c1c(O)c3c(c(O)c1C2=O)CC(O)(C(C)=O)CC3OC1CC(N)C(O)C(C)O1 (centres undefined),"inactive: 60.3, -2.25, 3.35, 26.1, -9.4% [separate samples]","inactive: 27.7, 16.4, -14.8, 4.1, -35% [separate samples]","inactive: 35.5, 5.3, -29.1, -14.4, -19.3% [separate samples]","inactive: 39, 8.3, -17.6, -8.35, -19.8% [separate samples]","inactive: 27.6, 2.85, -27.4, -27.9, -25.8% [separate samples]","inactive: 33.2, 0.2, -55.6, -50.2, -40.5% [separate samples]"
COc1nc2nc(C(O)C(O)CO)cnc2c(=O)n1C (centres undefined),–,–,–,"inactive: 31.4, 5.2, 25.1, 34.5% [separate samples]",–,"inactive: -25.6, -2.45, 0.55, 7.85% [separate samples]"
NCCCC(=O)O,–,"inactive: -6.3, -9.3, -24.6, 1.2% [separate samples]","inactive: 6, -16.2, -49.3, -28.7% [separate samples]",–,–,"inactive: -23.6, 1.55, -36.4, 3.3% [separate samples]"
COC1OC2COC(c3ccccc3)OC2C2OC12 (centres undefined),–,–,"inactive: 5.05, 1.25, -2.45, -38.5% [separate samples]",–,–,–
CC(C)C(N)C(=O)NC(C(=O)NC(C(=O)O)C(C)C)C(C)C (centres undefined),–,–,–,"inactive: -10.1 (2×), 26.8, -10.8, -17.6, -12.6% [separate samples]",–,"inactive: -20.9, -10.8, -41.6, -27.9, -8.7, -9.15% [separate samples]"
OCC(O)C(O)C(O)C(O)C(/C=N/Nc1ccccc1)=N/Nc1ccccc1 (centres undefined),"inactive: -5.75%, 41.3%, -3.95% and active: 94.7% [separate samples]","inactive: 6.15%, 39.3%, 15.6% and active: 73.8% [separate samples]","inactive: 30.4, 42.9, 36.2, 2.15% [separate samples]","inactive: -4.2%, -1.55%, -22% and active: 95.1% [separate samples]","inactive: 35.5%, 16.9%, -2.7% and active: 77.7% [separate samples]","inactive: 27.4%, 59.4%, 30.1% and active: 93.8% [separate samples]"
OC1C(O)C(O)C(O)C(O)C1O (centres undefined),"inactive: -5.9, -0.25, 17.5, 0.85, -13.8% [separate samples]","inactive: 7.05, -26.1, 4.2, -8.95, -16.7% [separate samples]","inactive: -15.2, -26.9, 10.2, -12.5, -14.1% [separate samples]","inactive: -7.15, -26.8, 3.7, -5.75, -24.9% [separate samples]",–,–
CCC(C)C(NC(=O)CN)C(=O)O (centres undefined) (H-Gly-[ξI]-OH),–,–,"inactive: 21.4, 2.35, -5.15, -6.85% [separate samples]","inactive: -69.1, -77.1, -36.7, -47.8% [separate samples]","inactive: -20.2, -14.2, 20.6, -3.1% [separate samples]",–
O=C(OC1COC(OC(=O)c2ccccc2)C(OC(=O)c2ccccc2)C1OC(=O)c1ccccc1)c1ccccc1 (centres undefined),–,–,–,–,"inactive: -2.65, 18.6, 13.4, 35% [separate samples]",–
CC(C)C(N)C(=O)O (centres undefined),"inactive: -6.75, -0.65, -4.65, 0.15, -29.6% [separate samples]","inactive: -5.35, 2.95, -8.8, 14.9, -17.6% [separate samples]","inactive: -8.45, -2.8, 2.35, 19.2, -24.9% [separate samples]","inactive: -21.8, 4.5, 9.95, 10.1, -16.7% [separate samples]","inactive: -26.8, 3.7, -19.4, 16.4, -23.7% [separate samples]","inactive: -43, -3.7, -11.8, 4.65, -13.6% [separate samples]"
COc1nc(N)c(NC2OCC(O)C(O)C2O)c(=O)n1C (centres undefined),–,"inactive: -67.8, -50, -30.1, -14.6, -26.3% [separate samples]","inactive: -73.8, -69.2, -42.5, -25.9, -35.7% [separate samples]","inactive: -16.2, -2.3, 4.55, -18.7, 25% [separate samples]","inactive: -37.8, -35.2, -13.1 (2×), -8.25% [separate samples]","inactive: -53, -35.4, -31.2, -52.6, -27.1% [separate samples]"
